Source: the supplement of paper PMC7826260
The list shows a part of the results. Viral Rep nickase domains cut single-stranded DNA in vitro (1 h at 37 °C, 3 µM enzyme); the outer parts of the 90-letter strands are left off. The score is log2 (uncut reads / reads without enzyme); the lower, the more was cut; hits are not called. Reads are scaled to the total; uncut strands gain when others are lost, and binding without cutting may add a little.

Key:
Experiment in all cases: uncleaved DNA left, log2 of reads against the no-enzyme library (log2 ratio); higher = less cleavage (more negative = more Rep cleavage of the k-mer); sequences stand for … in CTCGTCCG…ACCGGAGA
[1] = test system: T1, Rep nickase domain of Muscovy duck circovirus
T1 sequence (protein, residues 1-111, tag omitted): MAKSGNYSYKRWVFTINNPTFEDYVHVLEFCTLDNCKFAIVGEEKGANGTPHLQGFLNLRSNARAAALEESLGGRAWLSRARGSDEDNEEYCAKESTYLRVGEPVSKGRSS
Protocol: (§1)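 A pool of 90-nt single-stranded DNAs with seven random bases just before the constant AC of the nick site (name = the seven bases) was cut by 3 µM recombinant His6-SUMO-tagged Rep nickase domain (300 nM DNA, 50 mM HEPES pH 8.0, 50 mM NaCl, 1 mM MnCl2, 1 h, 37 °C, three replicates). Uncut DNA was amplified and sequenced.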

[2] = test system: T2, Rep nickase domain of banana bunchy top virus
T2 sequence (protein, residues 1-94, tag omitted): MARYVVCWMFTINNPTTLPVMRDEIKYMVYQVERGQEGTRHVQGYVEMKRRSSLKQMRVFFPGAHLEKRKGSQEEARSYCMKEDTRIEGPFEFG
Protocol: as §1

[3] = test system: T3, Rep nickase domain of cabbage leaf curl virus
T3 sequence (protein, residues 1-116, tag omitted): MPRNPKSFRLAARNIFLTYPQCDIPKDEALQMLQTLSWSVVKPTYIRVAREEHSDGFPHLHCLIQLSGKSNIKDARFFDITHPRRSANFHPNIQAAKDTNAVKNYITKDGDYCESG
Protocol: as §1

[4] = test system: T4, Rep nickase domain of chickpea chlorotic dwarf virus
T4 sequence (protein, residues 1-124, tag omitted): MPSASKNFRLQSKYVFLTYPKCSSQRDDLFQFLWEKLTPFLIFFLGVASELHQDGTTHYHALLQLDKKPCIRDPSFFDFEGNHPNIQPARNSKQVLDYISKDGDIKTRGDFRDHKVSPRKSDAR
Protocol: as §1

[5] = test system: T5, Rep nickase domain of faba bean necrotic yellows virus
T5 sequence (protein, residues 1-98, tag omitted): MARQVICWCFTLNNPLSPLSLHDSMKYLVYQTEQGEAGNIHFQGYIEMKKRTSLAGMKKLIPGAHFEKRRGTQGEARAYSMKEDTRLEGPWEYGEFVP
Protocol: as §1

[6] = test system: T6, Rep nickase domain of maize striate mosaic virus
T6 sequence (protein, residues 1-117, tag omitted): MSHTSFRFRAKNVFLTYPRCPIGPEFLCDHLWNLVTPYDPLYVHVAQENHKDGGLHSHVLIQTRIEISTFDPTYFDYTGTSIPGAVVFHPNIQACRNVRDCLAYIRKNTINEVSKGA
Protocol: as §1

[7] = test system: T7, Rep nickase domain of porcine circovirus 2
T7 sequence (protein, residues 2-116, tag omitted): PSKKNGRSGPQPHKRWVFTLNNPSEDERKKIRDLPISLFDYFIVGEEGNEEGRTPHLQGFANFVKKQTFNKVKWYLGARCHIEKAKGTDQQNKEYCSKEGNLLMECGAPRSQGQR
Protocol: as §1

[8] = test system: T8, Rep nickase domain of tomato golden mosaic virus
T8 sequence (protein, residues 1-124, tag omitted): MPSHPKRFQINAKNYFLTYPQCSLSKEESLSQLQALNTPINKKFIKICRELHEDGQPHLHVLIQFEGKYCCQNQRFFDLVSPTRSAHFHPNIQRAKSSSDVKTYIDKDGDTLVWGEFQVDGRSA
Protocol: as §1

[9] = test system: T9, Rep nickase domain of tomato yellow leaf curl virus
T9 sequence (protein, residues 1-136, tag omitted): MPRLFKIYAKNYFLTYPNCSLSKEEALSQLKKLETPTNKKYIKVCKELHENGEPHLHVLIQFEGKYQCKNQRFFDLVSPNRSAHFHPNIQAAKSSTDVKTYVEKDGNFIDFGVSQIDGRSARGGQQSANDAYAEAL
Protocol: as §1

[10] = test system: T10, Rep nickase domain of wheat dwarf virus
T10 sequence (protein, residues 1-137, tag omitted): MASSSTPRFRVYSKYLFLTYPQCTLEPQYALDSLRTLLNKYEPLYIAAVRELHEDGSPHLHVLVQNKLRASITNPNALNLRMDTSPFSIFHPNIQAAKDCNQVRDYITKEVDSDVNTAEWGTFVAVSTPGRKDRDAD
Protocol: as §1

Sequence	uncleaved DNA left (log2) [1]	uncleaved DNA left (log2) [2]	uncleaved DNA left (log2) [3]	uncleaved DNA left (log2) [4]	uncleaved DNA left (log2) [5]	uncleaved DNA left (log2) [6]	uncleaved DNA left (log2) [7]	uncleaved DNA left (log2) [8]	uncleaved DNA left (log2) [9]	uncleaved DNA left (log2) [10]
ATACGTG	-0.0245	-0.0153	-0.703	-0.809	0.0134	-1.16	0.188	0.0502	0.00351	-0.119
GAGAAAA	0.162	0.219	0.467	1	0.0657	1.24	-0.128	0.0911	0.165	0.278
AATACAA	0.109	0.179	0.164	-0.785	0.164	-0.417	0.165	0.0623	0.169	0.219
CGTGGCC	-0.104	0.0474	-0.0629	0.349	-0.0383	-0.188	-0.112	-0.0117	-0.117	0.0144
AAGGTGC	0.0646	-0.0217	-0.147	-0.022	0.132	-0.74	0.0703	0.0526	0.174	0.0167
TTGTCTA	-0.0526	-0.024	0.0975	-0.503	0.0191	-0.0764	-0.245	-0.0643	-0.0108	-0.0587
GGGATTA	0.0645	0.251	0.868	2.08	0.148	2.35	0.266	0.182	0.131	0.281
AATGTAG	0.0766	-0.016	-0.766	-0.0905	0.104	-1.03	0.183	0.0161	0.0496	-0.0449
TTTCGAG	-0.0193	0.121	0.53	0.638	0.106	0.396	0.209	0.0721	0.134	0.183
TGGGTCG	0.0444	-0.00474	-0.428	0.355	0.103	-0.422	0.218	0.0259	0.0898	-0.0103
CCTACTT	-0.0728	-0.0983	-0.258	-2.68	-0.0304	-0.498	-0.685	-0.104	-0.083	-0.175
GTGGATT	-0.0101	0.00817	0.665	1.51	0.0325	2.08	0.131	-0.0515	0.1	-0.0577
GAAGGTC	-0.00567	0.0562	0.367	0.75	-0.00863	1.18	-0.198	0.132	-0.0258	0.0762
GAAATCC	0.07	-0.0115	0.16	0.414	0.0699	0.771	0.149	0.00182	0.0376	0.0949
ACACTAT	-0.0288	0.0471	-0.141	-1.41	-0.000309	-0.862	-0.0202	0.11	-0.0742	-0.0434
AAATGCG	-0.0521	-0.078	0.102	1.36	0.0238	1.17	0.0668	-0.0413	-0.11	-0.0253
TCTACAT	0.0868	0.115	0.323	-0.94	0.0649	0.564	-0.0617	-0.0701	0.116	0.0783
ATCGCAC	0.00966	-0.0375	-0.239	-0.303	0.0651	-0.82	0.0123	0.0019	-0.0164	-0.044
CCCTGTC	-0.0642	-0.224	-0.0604	-0.312	-0.0367	-0.833	-0.203	-0.128	-0.214	-0.235
TTGGATA	0.0191	0.101	0.191	0.705	0.00673	1.22	0.083	0.0844	-0.0514	-0.00111
GCCGCAC	0.091	0.16	0.174	0.323	0.117	-0.115	0.152	0.0666	0.0637	0.054
TTTTGGA	0.0286	0.0114	-0.00804	-0.361	-0.0551	-0.683	0.00394	0.0388	-0.0356	-0.0971
CTGTCCC	-0.0198	-0.108	0.0803	0.086	-0.14	0.0293	-0.288	-0.0783	-0.0605	0.0209
CAACTGG	-0.0235	-0.0741	-0.195	-0.118	-0.0858	-0.569	0.0129	-0.0354	-0.012	0.0438
GAACTTT	0.058	0.00361	-0.142	-1.92	-0.105	1.43	-0.254	-0.0553	0.0678	-0.0382
CTGACTG	-0.0496	-0.0178	-0.0411	0.642	-0.163	1.6	0.00555	-0.0515	-0.0142	0.0178
TATTTTA	-3.25	-1.4	0.033	-2.22	-0.0562	-0.228	-2.73	0.00662	0.0103	-0.0192
GTCTAAC	-0.0293	0.094	0.243	0.675	-0.145	1.66	0.131	0.0606	-0.072	0.0183
ATTAATG	0.00587	0.0255	-0.611	-0.618	0.0065	-1.1	0.19	0.0874	0.143	0.013
GTGTGGA	0.14	0.13	0.401	0.912	0.122	1.18	0.0706	0.106	0.0644	0.0342
